Measurements from article PMC8682764 (Nucleic Acids Research, 2021).

Assays:
[1] = target: WDR5, 6x N-terminal histidine fusion (pETDuet-1-WDR5) (UniProt P61964); assay: pull-down
[2] = target: RbBP5, 6x N-terminal histidine fusion (pETDuet-1-RBBP5) (UniProt Q15291); assay: pull-down

B1: GST-MLL1-SET (domain or fragment)
chain: not shown
[1]
  binding result: binds
[2]
  binding result: binds
